System: oligomeric Aβ1-42 (biotin-oAβ1-42 bait)
Settings: enrichment relative to biotin-only saturated negative control matrix; human frontal lobe digitonin extract; TMT, three biological replicates; pH 8.0, 4°C overnight

| Molecule | Experiment I B-oAβ1-42/B Ratio |
| --- | --- |
| Quinone oxidoreductase: human brain protein (protein, UniProt Q08257 2-329, looked up) Quinone oxidoreductase: ATGQKLMRAVRVFEFGGPEVLKLRSDIAVPIPKDHQVLIKVHACGVNPVETYIRSGTYSRKPLLPYTPGSDVAGVIEAVGDNASAFKKGDRVFTSSTISGGYAEYALAADHTVYKLPEKLDFKQGAAIGIPYFTAYRALIHSACVKAGESVLVHGASGGVGLAACQIARAYGLKILGTAGTEEGQKIVLQNGAHEVFNHREVNYIDKIKKYVGEKGIDIIIEMLANVNLSKDLSLLSHGGRVIVVGSRGTIEINPRDTMAKESSIIGVTLFSSTKEEFQQYAAALQAGMEIGWLKPVIGSQYPLEKVAEAHENIIHGSGATGKMILLL | 5.18 |
| ATP synthase subunit alpha, mitochondrial: human brain protein (protein, UniProt P25705 44-553, looked up) ATP synthase F(1) complex …: QKTGTAEMSSILEERILGADTSVDLEETGRVLSIGDGIARVHGLRNVQAEEMVEFSSGLKGMSLNLEPDNVGVVVFGNDKLIKEGDIVKRTGAIVDVPVGEELLGRVVDALGNAIDGKGPIGSKTRRRVGLKAPGIIPRISVREPMQTGIKAVDSLVPIGRGQRELIIGDRQTGKTSIAIDTIINQKRFNDGSDEKKKLYCIYVAIGQKRSTVAQLVKRLTDADAMKYTIVVSATASDAAPLQYLAPYSGCSMGEYFRDNGKHALIIYDDLSKQAVAYRQMSLLLRRPPGREAYPGDVFYLHSRLLERAAKMNDAFGGGSLTALPVIETQAGDVSAYIPTNVISITDGQIFLETELFYKGIRPAINVGLSVSRVGSAAQTRAMKQVAGTMKLELAQYREVAAFAQFGSDLDAATQQLLSRGVRLTELLKQGQYSPMAIEEQVAVIYAGVRGYLDKLEPSKITKFENAFLSHVVSQHQALLGTIRADGKISEQSDAKLKEIVTNFLAGFEA | 5.17 |
| Tryptophanyl-tRNA synthetase, cytoplasmic: human brain protein (protein, UniProt P23381 2-471, looked up) Tryptophan--tRNA ligase, …: PNSEPASLLELFNSIATQGELVRSLKAGNASKDEIDSAVKMLVSLKMSYKAAAGEDYKADCPPGNPAPTSNHGPDATEAEEDFVDPWTVQTSSAKGIDYDKLIVRFGSSKIDKELINRIERATGQRPHHFLRRGIFFSHRDMNQVLDAYENKKPFYLYTGRGPSSEAMHVGHLIPFIFTKWLQDVFNVPLVIQMTDDEKYLWKDLTLDQAYSYAVENAKDIIACGFDINKTFIFSDLDYMGMSSGFYKNVVKIQKHVTFNQVKGIFGFTDSDCIGKISFPAIQAAPSFSNSFPQIFRDRTDIQCLIPCAIDQDPYFRMTRDVAPRIGYPKPALLHSTFFPALQGAQTKMSASDPNSSIFLTDTAKQIKTKVNKHAFSGGRDTIEEHRQFGGNCDVDVSFMYLTFFLEDDDKLEQIRKDYTSGAMLTGELKKALIEVLQPLIAEHQARRKEVTDEIVKEFMTPRKLSFDFQ | 5.17 |
| 3-hydroxyisobutyryl-CoA hydrolase: human brain protein (protein, UniProt Q6NVY1 33-386, looked up) 3-hydroxyisobutyryl-CoA …: DAAEEVLLEKKGCTGVITLNRPKFLNALTLNMIRQIYPQLKKWEQDPETFLIIIKGAGGKAFCAGGDIRVISEAEKAKQKIAPVFFREEYMLNNAVGSCQKPYVALIHGITMGGGVGLSVHGQFRVATEKCLFAMPETAIGLFPDVGGGYFLPRLQGKLGYFLALTGFRLKGRDVYRAGIATHFVDSEKLAMLEEDLLALKSPSKENIASVLENYHTESKIDRDKSFILEEHMDKINSCFSANTVEEIIENLQQDGSSFALEQLKVINKMSPTSLKITLRQLMEGSSKTLQEVLTMEYRLSQACMRGHDFHEGVRAVLIDKDQSPKWKPADLKEVTEEDLNNHFKSLGSSDLKF | 5.27 |
| Cofilin-2: human brain protein (protein, UniProt Q9Y281 2-166, looked up) Cofilin-2: ASGVTVNDEVIKVFNDMKVRKSSTQEEIKKRKKAVLFCLSDDKRQIIVEEAKQILVGDIGDTVEDPYTSFVKLLPLNDCRYALYDATYETKESKKEDLVFIFWAPESAPLKSKMIYASSKDAIKKKFTGIKHEWQVNGLDDIKDRSTLGEKLGGNVVVSLEGKPL | 4.79 |
| Endophilin-A1: human brain protein (protein, UniProt Q99962 1-352, looked up) Endophilin-A1: MSVAGLKKQFHKATQKVSEKVGGAEGTKLDDDFKEMERKVDVTSRAVMEIMTKTIEYLQPNPASRAKLSMINTMSKIRGQEKGPGYPQAEALLAEAMLKFGRELGDDCNFGPALGEVGEAMRELSEVKDSLDIEVKQNFIDPLQNLHDKDLREIQHHLKKLEGRRLDFDYKKKRQGKIPDEELRQALEKFDESKEIAESSMFNLLEMDIEQVSQLSALVQAQLEYHKQAVQILQQVTVRLEERIRQASSQPRREYQPKPRMSLEFPTGDSTQPNGGLSHTGTPKPSGVQMDQPCCRALYDFEPENEGELGFKEGDIITLTNQIDENWYEGMLHGHSGFFPINYVEILVALPH | 5.03 |
| Acetyl-CoA acetyltransferase, mitochondrial: human brain protein (protein, UniProt P24752 34-427, looked up) Acetyl-CoA acetyltransferase, …: VSKPTLKEVVIVSATRTPIGSFLGSLSLLPATKLGSIAIQGAIEKAGIPKEEVKEAYMGNVLQGGEGQAPTRQAVLGAGLPISTPCTTINKVCASGMKAIMMASQSLMCGHQDVMVAGGMESMSNVPYVMNRGSTPYGGVKLEDLIVKDGLTDVYNKIHMGSCAENTAKKLNIARNEQDAYAINSYTRSKAAWEAGKFGNEVIPVTVTVKGQPDVVVKEDEEYKRVDFSKVPKLKTVFQKENGTVTAANASTLNDGAAALVLMTADAAKRLNVTPLARIVAFADAAVEPIDFPIAPVYAASMVLKDVGLKKEDIAMWEVNEAFSLVVLANIKMLEIDPQKVNINGGAVSLGHPIGMSGARIVGHLTHALKQGEYGLASICNGGGGASAMLIQKL | 4.81 |
| Peroxiredoxin-5, mitochondrial: human brain protein (protein, UniProt P30044 53-214, looked up) Peroxiredoxin-5, mitochondrial: MAPIKVGDAIPAVEVFEGEPGNKVNLAELFKGKKGVLFGVPGAFTPGCSKTHLPGFVEQAEALKAKGVQVVACLSVNDAFVTGEWGRAHKAEGKVRLLADPTGAFGKETDLLLDDSLVSIFGNRRLKRFSMVVQDGIVKALNVEPDGTGLTCSLAPNIISQL | 12.23 |
